Paper PMC12040169 (PLOS Biology, 2025)
Read-outs that look alike come from different tables or passages of the source. The list shows a part of the results.

System: T1, C. trachomatis L2/434/Bu expressing GFP (CTL2-GFP)
T1 construct: L2/434/Bu GFP intracellular growth in HeLa cells
Set-up: species or system HeLa; C. trachomatis total inclusion area by high-content imaging, normalised to DMSO
Summary of the method: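 Following bulk GFP and resorufin fluorescence reads, infected cells were fixed, Hoechst-stained and imaged on a high-content platform. Inclusion total area and number per well served as growth proxies; nuclei counts indicated host viability. MICs were derived as for the fluorescence assay.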

[1] = total inclusion area; 28.5 h, 10 µM; inhibitor

Compound	% of control remaining [1]	% of control remaining (total inclusion area, 28.5 h, 10 µM, inhibitor)
CCN(CC(=O)NCc1ccc(F)cc1)S(=O)(=O)c1c(C)n[nH]c1C [CBK306074]	74.0704	–
CCCCOc1ccc(C(=O)N/C(=C/c2ccc(OC)cc2)C(=O)O)cc1 [CBK300490]	91.6418	–
Cc1ccc(C)c(OCC(=O)Nc2ccccc2C(=O)N2CCN(C)CC2)c1 [CBK269924]	96.1007	–
CCOC(=O)C1CCN(C(=O)c2c(-c3ccccc3)noc2C)CC1 [CBK158704]	116.703	–
O=C(N[C@@H](Cn1cc(F)c(=O)[nH]c1=O)C(=O)O)C1CCCC1 [CBK289660]	103.657	–
Cn1ncc2c1CCCN(C(=O)Cc1ccc(Cl)cc1)C2 [CBK285231]	107.896	–
COc1cc(CNC(C)c2ccccc2)ccc1OCC(N)=O (stereo not shown) [CBK269982C]	78.2168	–
COc1ccc(Oc2nccnc2N2CCN(CCc3ccccn3)CC2)cc1OC [CBK083067T]	90.0499	–
Cc1[nH]c2ccc(CNC(=O)Cn3ccnc3C(C)C)cc2c1C [CBK281540]	88.0941	–
O=C(CNC(=O)c1ccccc1)OCC(=O)c1ccc(Cl)c(Cl)c1 [CBK261611]	88.803	–
CC1CCCC(C)N1c1nn(C)c(=O)[nH]1 (stereo not shown) [CBK019114]	51.0543	–
O=C1N[C@]2(CCc3ccccc31)CN(Cc1ccsc1)C[C@H]2CO [CBK284793]	79.8637	–
CC1CCc2c(sc(NC(=O)c3cccs3)c2C(=O)N(C)C)C1 (stereo not shown) [CBK307100]	40.1127	–
Clc1ccc(COc2nccnc2OC2CCN(CC3CC3)CC2)cc1Cl [CBK083123T]	–	66.2895
Cc1nc(C2CCN(Cc3cccc(F)c3)CC2)ncc1C(=O)Nc1ccc(F)cc1 [CBK285668]	96.5207	–
CC(C)c1cc(C(=O)N(CCO)CC2CC3C=CC2C3)n(C)n1 (stereo not shown) [CBK282164]	99.2299	–
Cc1ncsc1C(=O)N1CCN(Cc2ccco2)C[C@@H]1C(C)C [CBK285486]	95.7129	–
Cc1ccc(NC(=O)NC(=O)C2CCN(CCCc3ccc(F)cc3)CC2)cc1Cl [CBK035057]	92.8848	–
CCc1cc2c(NC(C(=O)O)C(C)C)ncnc2s1 (stereo not shown) [CBK265349]	99.628	–
CN1CCN(CCC(=O)N/N=C/c2ccccc2O)CC1 [CBK261497]	108.483	–
CCC1(C)CC(C(N)=S)CCO1 (stereo not shown) [CBK008954]	105.74	–
CN(C)C(=O)Cc1ccc(-c2ccccc2)cc1 [CBK012162]	52.2899	–
Cc1cn2c(=O)c(C(=O)Nc3ccc(F)c(C(F)(F)F)c3)cnc2s1 [CBK287713]	76.8644	–
CCc1ccc(OCC(=O)c2ccc(O)c(CN(C)C)c2O)cc1 [CBK264438C]	113.572	–
O=C(CN1C(=O)c2ccccc2C1=O)Nc1ccccc1C(=O)N1CCN(c2ccccc2)CC1 [CBK269251]	113.092	–
O=C1CC[C@@H](NCc2cccc(O)c2)[C@H](c2cc(F)cc(F)c2)N1 [CBK282909]	96.5685	–
COc1ccccc1Oc1ccc(NS(=O)(=O)c2cccc(C(=O)O)c2)cc1 [CBK296728]	118.136	–

Compound	% of control remaining [1]	% of control remaining (total inclusion area, 28.5 h, 10 µM, inhibitor)
NC(=O)C1CCN(CC(=O)Nc2cc(C(F)(F)F)ccc2Cl)CC1 [CBK269776]	103.177	–
O=C(NCCO)c1ccc(-c2cnc3[nH]c(=O)n(C4CCOCC4)c3n2)cc1 [CBK065041]	60.7186	–
c1cnc(OC2CCN(Cc3ccc4c(c3)OCO4)CC2)c(OCCN2CCOCC2)n1 [CBK082925T]	63.5246	–
O=C(Cc1cccs1)N1CCC(n2nc(C3CC3)ccc2=O)CC1 [CBK284243]	77.8237	–
O=C(C1CCCCC1)N1CCCC(c2cc3cccnc3[nH]2)C1 (stereo not shown) [CBK284938]	69.1099	–
Cc1nc(Nc2ccc(Cl)cc2)nc(OC2CCNCC2)n1 [CBK024848]	113.828	–
Cc1nc(CN2C(=O)CC(Cc3cnn(C)c3)C2=O)nc2ccccc12 (stereo not shown) [CBK305415]	63.3587	–
Cn1c(=O)c2[nH]c(N3CCCCC3)nc2n(C)c1=O [CBK027630]	59.7112	–
Cc1ccc(C(=O)/C=C\Nc2ccc(S(=O)(=O)Nc3cc(C)nc(C)n3)cc2)cc1 [CBK264384]	38.4429	–
Cc1nn(C)cc1S(=O)(=O)N1CCC(c2cccc(Cc3ccccc3Cl)n2)CC1 [CBK286115]	90.7637	–
Cc1ccc2cc(COC(=O)c3ccc(N4CCOCC4)nc3)c(Cl)nc2c1 [CBK295336]	106.867	–
O=C(Cc1cc(F)cc(F)c1F)N1CCC(Sc2ccc(-c3ccccc3)cc2)CC1 [CBK131952]	92.7559	–
CC1CCc2c(sc3ncnc(NC4CCN(CC(N)=O)CC4)c23)C1 (stereo not shown) [CBK305008]	57.4016	–
CCCC/C=C/c1cnc2[nH]c(=O)n(CCc3cccnc3)c2n1 [CBK064496]	89.061	–
OCCn1ncc2c(Nc3cccc(Cn4cncn4)c3)ncnc21 [CBK305965]	39.1808	–
COc1ccc(/C(N)=N/OC(=O)CN(C)S(=O)(=O)c2ccccc2)cc1 [CBK267683]	78.2383	–
Cc1cc2nc(N3CCN(C(=O)c4ccc(C#N)cc4)CC3)sc2cc1C [CBK287737]	91.9472	–
N#CCCCN1CCCN(c2cc(OCC3COc4ccccc4O3)ncn2)CC1 (stereo not shown) [CBK083391T]	72.9781	–
COc1ccccc1CN(CC(C)(C)CN)C(=O)NCc1ccc(F)cc1 [CBK002470C]	84.5239	–
CC(=O)N1CC[C@@H](CC(=O)O)[C@@H](CC2=NCCc3ccc(C(C)(C)C)cc32)C1 [CBK289165]	121.179	–
CC1CCN(c2ccc([N+](=O)[O-])c(N3CCC(C)CC3)c2)CC1 [CBK001367]	124.508	–
CN(C)c1ccc(-c2ncnn2CC(F)(F)F)cn1 [CBK307215]	79.5965	–
O=[N+]([O-])c1ccc(N2CCN(CCO)CC2)cc1NCc1ccccc1 [CBK042200]	98.9045	–
Cc1ccc(CNc2nc3c(c(=O)[nH]c(=O)n3C)n2CC(O)COC(C)C)cc1 (stereo not shown) [CBK139849]	93.7337	–
Cc1nc(N/C(=N/C(=O)c2ccccc2)NC(=O)c2ccccc2)nc2ccccc12 [CBK262529]	90.9167	–
COc1ccc(NC(=O)C2CC(=O)NC3=C2C(=O)CC(c2ccco2)C3)cc1 (stereo not shown) [CBK270282]	83.528	–
O=c1[nH]c2ncc(-c3cccc4ncccc34)nc2n1Cc1ccccc1 [CBK064245]	59.8429	–

Compound	% of control remaining [1]	% of control remaining (total inclusion area, 28.5 h, 10 µM, inhibitor)
CC(=O)Nc1ccc(NC(=O)CCCC(=O)O)cc1 [CBK260984]	85.7552	–
N=C1/C(=C/c2cn(Cc3ccccc3)c3ccccc23)C(=O)N=C2SC(COc3ccccc3)=NN12 [CBK264150]	95.3411	–
Cc1cc(NCC2CCCO2)n2nc(C)c(-c3ccccc3)c2n1 (stereo not shown) [CBK304531]	59.0232	–
Cc1cc(N2CCN(C(=O)OC(C)(C)C)CC2)nc(N)n1 [CBK001843]	66.1128	–
COc1ccc(C)cc1N(CC(=O)Nc1ccccc1C(=O)O)S(C)(=O)=O [CBK264009]	122.743	–
CC(C)C(=O)N1CC2(CCN(Cc3nc4ccccc4[nH]3)CC2)c2ccccc21 [CBK126719]	99.6742	–
CN1C(=O)CC2(C1=O)C(=O)N(CCCCOc1ccccc1)c1ccc(F)cc12 (stereo not shown) [CBK075408]	106.584	–
Nc1nnc(SC2c3cccc4cccc(c34)C2NS(=O)(=O)c2ccc(Cl)cc2)s1 (stereo not shown) [CBK266373]	114.837	–
c1ccc(CN2CCN(CCN3CCn4c3nc3ccccc34)CC2)cc1 [CBK265472B]	88.38	–
CCOc1ccccc1NC(=O)CSc1nc(N)cc(O)n1 [CBK268075]	105.478	–
CCCCNC(=O)CSc1ncccc1C(=O)NCc1cccnc1 [CBK071590]	101.461	–
COc1cc2ncc(C(=O)NCc3cccs3)c(O)c2cc1OC [CBK159998]	50.0079	–
O=c1n(C(c2ccccc2)c2ccccc2)ccn1S(=O)(=O)c1cccc(Cl)c1 [CBK106615]	99.7955	–
O=C(NC1CCN(Cc2ccccc2)CC1)c1cnc(-c2ccc(Cl)cc2)c(-c2cccnc2)c1 [CBK037602]	98.0946	–
COc1cccc2cc(C(=O)NCCCSC)oc12 [CBK149793]	97.6447	–
O=c1[nH]c(=O)n([C@H]2C[C@@H](O)[C@@H](CO)O2)cc1CCO [CBK201239]	99.4147	–
CC(C)Nc1cncc(OCCCN(C)C)n1 [CBK115600]	99.2318	–
CC(CNC1CCCC1)C(O)(c1ccccc1)c1ccccc1 (stereo not shown) [CBK012237C]	49.2065	–
CCCc1[nH]nc(O)c1Cc1ccccc1C(F)(F)F [CBK075037]	78.8782	–
COC(=O)COc1ccc(S(=O)(=O)N2CCC(C(N)=O)CC2)cc1 [CBK265993]	132.489	–
CC(C)[C@@H](CO)Nc1cncc(-c2ccc3ccccc3c2)n1 [CBK065546]	97.0868	–
Nc1nnc(CCS(=O)(=O)c2ccc(Br)cc2)s1 [CBK026286]	51.2411	–
O=C(O)c1ccccc1-c1ccc(/C=C2\S/C(=N\c3ccccc3)N(c3ccccc3)C2=O)o1 [CBK262566]	99.7184	–
CCOC(=O)C(NCCc1ccc(OC)c(OC)c1)(NC(=O)c1ccco1)C(F)(F)F (stereo not shown) [CBK013715]	58.4158	–
COc1ccc(S(=O)(=O)NCCNC(=O)c2cc(Br)cnc2N(C)S(C)(=O)=O)cc1 [CBK076477]	84.5392	–
